In PubChem BioAssay AID624296 (National Center for Advancing Translational Sciences (NCATS), 2012):
Out of some 350,000 compounds screened, about 9,900 (2.8%) were called active. The inconclusive results got no clear call from the source; some entries with a clear call stand among them for comparison. The call rests on the fitted dose curve; in most records, active means well fitted activation curve with a large enough effect; inconclusive means small, poorly fitted or top-dose-only effect; inactive means no such curve, though single readings can be large or run the other way. Potencies of inconclusive entries are left out as doubtful fits.

Experiment: A quantitative high throughput screen for small molecules that induce DNA re-replication in MCF 10a normal breast cells. Further: nearly all actives have a fitted effect of over 50% in size.
Conditions: MCF 10A DNA re-replication, Hoechst nuclear intensity, 48 h; series mostly up to 46.1 µM
Potency means the concentration at half of the fitted maximal effect; tags describe the fitted curve by direction and shape.

Row | SMILES | Potency
1 | Cc1nn2c(nc(N3CCCCC3)c3ccccc32)c1C=O | inactive
2 | CCn1nc(NS(=O)(=O)c2ccc([N+](=O)[O-])cc2)c2cc3ccccc3nc21 | inconclusive [activator, partial curve, poor fit]
3 | Fc1cccc(Nc2c3c(nc4ccccc24)CCC3)c1 | inactive
4 | Cc1cccnc1NC(=O)c1c(O)c2ccccc2n(C)c1=O | inconclusive [activator, partial curve, poor fit]
5 | CN(C)CC(O)COc1ccc(C(C)(C)c2ccc(OCC(O)CN(C)C)cc2)cc1 (stereo not given) | inconclusive [activator, single point]
6 | CCOc1ccc(Nc2oc(-c3ccco3)nc2C#N)cc1 | inconclusive [activator, partial curve, poor fit]
7 | S=c1[nH]nc(-c2ccc(Cl)cc2)n1-c1ccc2c(c1)OCCO2 | inconclusive [activator, partial curve, poor fit]
8 | O=C(O)c1cc(-c2ccc(Cl)cc2)n(-c2cccc(Cl)c2)n1 | inconclusive [activator, single point]
9 | CNC(=O)C1CC(=O)N(c2ccc(OCC(=O)Nc3ccc(OC)cc3)cc2)C1 (stereo not given) | inconclusive [activator, single point]
10 | CCC1CN(C(=O)NCc2ccc(C)cc2)c2cc(Cl)ccc2O1 (stereo not given) | inactive
11 | Cc1ccc(CNC(=O)C(=O)NCC2OCCN2C(=O)c2ccc(Cl)cc2)cc1 (stereo not given) | inconclusive [activator, single point]
12 | CCCC(=O)NC(c1ccc(OC)c(OC)c1)c1cc(Cl)c2cccnc2c1O (stereo not given) | active: 8.2 µM
13 | O=C1c2ccccc2C(O)(Cc2ccccc2)N1Cc1ccco1 (stereo not given) | inconclusive [activator, single point]
14 | O=C(COc1ccccc1-c1ccccc1)NCCN1C(=O)S/C(=C\c2cccnc2)C1=O | inconclusive [activator, single point]
15 | CC1CCCCC12NC(=O)N(CC(=O)N1CCN(C(=O)c3cccs3)CC1)C2=O (stereo not given) | inactive
16 | CN(C)CCNC(=O)COc1ccc(C23CC4CC(CC(C4)C2)C3)cc1 | active: 16.4 µM
17 | Cc1ccc(NS(=O)(=O)c2ccccc2F)cc1S(=O)(=O)N1CCCCCC1 | inconclusive [activator, full curve, poor fit]
18 | CCc1c(C(=O)Nc2ccccc2)c(C)[nH]c(=S)c1C#N | inactive
19 | COc1cc2c(cc1NC(=O)CN(C)Cc1ccc(OC)c(OC)c1)oc1ccccc12 | active: 9.2 µM
20 | CC(=O)NC(c1ccc(C(C)C)cc1)c1c(O)ccc2ccccc12 (stereo not given) | active: 18.4 µM
21 | Cc1ccc2c3c(c(SCC(=O)Nc4nonc4C)nc2c1)CCCC3 | inconclusive [activator, partial curve, poor fit]
22 | Cc1sc2nc(CSc3ccccc3)nc(N3CCC(C(N)=O)CC3)c2c1C | inconclusive [activator, partial curve, poor fit]
23 | CC1CN(c2ccccc2)C(=O)CS1 (stereo not given) | inconclusive [activator, single point]
24 | CC1CCCCN1S(=O)(=O)c1ccc(C(=O)Nc2nnc(-c3ccncc3)o2)cc1 (stereo not given) | inconclusive [activator, full curve]
25 | S=C(Nc1ccc(Oc2ccccc2)cc1)NC1CCCC1 | inconclusive [activator, single point]

Row | SMILES | Potency
26 | O=S(=O)(Nc1cccc(Br)c1)c1cccc2nsnc12 | inconclusive [activator, partial curve, poor fit]
27 | Cc1ccc(C)c(-n2c(C)cc(/C=N/NC(=O)c3c(C)nc4cc(C)ccn34)c2C)c1 | inactive
28 | CCOc1ccccc1-n1c(SCC(N)=O)nnc1-c1ccco1 | inconclusive [activator, partial curve, poor fit]
29 | Nc1c(C(=O)OCC2CCCO2)c2nc3ccccc3nc2n1C1CCCCC1 (stereo not given) | inconclusive [activator, full curve]
30 | NNC(=O)c1cc2cc3ccccc3nc2s1 | active: 11.6 µM
31 | CCc1cc2c(=O)c(-c3ccc4c(c3)OCCO4)coc2cc1OC(=O)c1ccco1 | inconclusive [activator, single point]
32 | COC(=O)CN1C(=S)N(Cc2ccccc2)C(=O)C1CC(=O)Nc1ccc(Br)cc1 (stereo not given) | active: 18.4 µM
33 | O=C1NC[C@@H](c2ccccc2)OC(=O)[C@H](Cc2ccc(F)cc2)C/C=C\C[C@H]1CC(=O)N(CCO)Cc1ccccc1 | inactive
34 | NC(=O)c1c(NC(=O)c2ccco2)sc2c1CCC2 | inactive
35 | Cc1ccc(N2CC(C(=O)Nc3cc(Cl)ccc3-n3cncn3)CC2=O)cc1 (stereo not given) | inconclusive [activator, single point]
36 | COc1ccc(C(=O)NC(C)c2nnc(SCc3ccc(Cl)c(Cl)c3)n2C)cc1 (stereo not given) | inactive
37 | COc1ccc(NC(=O)/C(=C\c2ccc(OS(=O)(=O)c3ccc(C)cc3)cc2)NC(=O)c2ccccc2)cc1 | inconclusive [activator, partial curve, poor fit]
38 | COc1ccc(NC(=S)NCc2cccnc2)cc1 | inactive
39 | O=C(NCCN1CCOCC1)C1CC(=O)N(c2ccc(Cl)cc2)C1 (stereo not given) | inactive
40 | CCCN1C(=O)c2cc(C(=O)Nc3ccc(OC)cc3OC)ccc2C1Nc1ccc(OC)cc1OC (stereo not given) | inconclusive [activator, partial curve, poor fit]
41 | CC(C)OC(=O)Nc1ccc2nc(-c3cscn3)[nH]c2c1 | active: 9.44 µM
42 | CC(C)=CCc1c(O)cc2oc3c(CC=C(C)C)c(O)c(O)c(CC=C(C)C)c3c(=O)c2c1O | inconclusive [activator, single point]
43 | N#Cc1nc(-c2ccc(Cl)cc2)oc1NCc1ccco1 | active: 14.6 µM
44 | Nc1nc2ccccc2n1C(=O)c1ccco1 | inactive
45 | N/C(=N/O)c1cccn1Cc1ccccc1[N+](=O)[O-] | inconclusive [activator, partial curve, poor fit]
46 | COc1cccc2c(=O)c3ccoc3n(C)c12 | inactive
47 | CC(C)(C)C(=O)NC(=S)N1CCc2ccccc21 | inactive
48 | CCc1c(O)nc(SCC(=O)Nc2nc3ccccc3s2)n(-c2ccccc2)c1=O | inconclusive [activator, single point]
49 | O=c1n(Cc2ccccc2)c2cc(Cl)cnc2n1Cc1ccccc1 | inconclusive [activator, partial curve]
50 | Cc1cccc(NC(=S)N(CCCN2CCOCC2)C(C)c2cc3ccccc3o2)c1 (stereo not given) | inactive

Row | SMILES | Potency
51 | CC1CN(C(=O)/C=C/c2ccccc2[N+](=O)[O-])CC(C)O1 (stereo not given) | inactive
52 | O=C(NCCc1nc2ccccc2[nH]1)/C(=C/c1ccco1)NC(=O)c1ccccc1Br | inactive
53 | CC(C)CCNC1=CC(=O)CC(c2ccccc2)C1 (stereo not given) | inconclusive [activator, single point]
54 | CCCCC/C=C/C1=CC(=O)C[C@H](c2ccc(OC)c(OC)c2)C1 | inconclusive [activator, partial curve, poor fit]
55 | COc1ccc(C(C)=O)cc1CS(=O)(=O)CC(=O)NCCc1c[nH]c2ccccc12 | inactive
56 | CCOC(=O)c1c(-c2ccc(C)cc2C)csc1NC(=O)CSc1nnnn1C | inconclusive [activator, single point]
57 | COc1cccc(/C=N/N2C(=O)CSC2=S)c1O | inactive
58 | CC(Sc1nnnn1C)C(=O)Nc1ccc(Oc2ccccc2)cc1 (stereo not given) | inconclusive [activator, partial curve, poor fit]
59 | Cc1ccc(Sc2nnc(Cc3ccccc3)c3ccccc23)cc1 | inconclusive [activator, single point]
60 | CC(NC(=O)c1cccc(OC2CCN(C3CCN(C)CC3)CC2)c1)c1ccccc1 (stereo not given) | inactive
61 | CC(C)Cn1c(-c2csc(C(C)C)c2)n[nH]c1=S | inconclusive [activator, full curve, poor fit]
62 | CC1CCCC(NC(=O)c2cc(-c3ccncc3)nc3ccccc23)C1C (stereo not given) | inactive
63 | CCc1nc(CNC(=O)C2CCC(=O)N(Cc3ccccc3F)C2)no1 (stereo not given) | inactive
64 | O=C(O)/C=C/c1ccc2ccccc2n1 | inactive
65 | CN1CCN(c2ccccc2NC(=O)c2ccc(-c3ccc(Br)cc3)o2)CC1 | active: 4.11 µM
66 | O=C(CSc1nnc(NC(=O)C2CCC2)s1)Nc1ccccc1F | inactive
67 | NS(=O)(=O)c1cccc(NC(=O)CSc2nn(-c3ccccc3)c(=S)s2)c1 | inactive
68 | COc1ccc(Br)cc1C1CC(=O)N2CN(C)CSC2=C1C#N (stereo not given) | inactive
69 | CCC(CC)NC(=O)CSc1nnc(-c2ccc(OC)cc2)n1C(C)C | inconclusive [activator, single point]
70 | COc1ccc(Cc2nnc(NC(=O)c3ccc(OC)cc3OC)s2)cc1 | inconclusive [activator, single point]
71 | CSc1nc2c(c(-c3ccc(O)cc3)c1C#N)CCC2 | active: 25.9 µM
72 | Cc1ccc2oc(=O)c3cc(C(=O)NCc4ccco4)sc3c2c1 | inactive
73 | COC(=O)c1ccc(COC(=O)c2cc3ccccc3oc2=O)cc1 | inconclusive [activator, partial curve, poor fit]
74 | Cc1ccc2nc(SCC(=O)Nc3cc(C)on3)c(C)cc2c1 | inconclusive [activator, partial curve]
75 | Cc1cccc(/C=N/NC(=O)c2ccccc2OCc2cccc(Br)c2)n1 | active: 18.4 µM
